# Laboratory results: the supplement of paper PMC3334620
# The full ranking holds about 33,000 sequences; the median of “E-score (-0.5 to 0.5)” is about -0.013, and the highest 2% start at about 0.3. The list shows a part of the results.
# Target: T1, Msn1 (UniProt P22148)
# T1 sequence: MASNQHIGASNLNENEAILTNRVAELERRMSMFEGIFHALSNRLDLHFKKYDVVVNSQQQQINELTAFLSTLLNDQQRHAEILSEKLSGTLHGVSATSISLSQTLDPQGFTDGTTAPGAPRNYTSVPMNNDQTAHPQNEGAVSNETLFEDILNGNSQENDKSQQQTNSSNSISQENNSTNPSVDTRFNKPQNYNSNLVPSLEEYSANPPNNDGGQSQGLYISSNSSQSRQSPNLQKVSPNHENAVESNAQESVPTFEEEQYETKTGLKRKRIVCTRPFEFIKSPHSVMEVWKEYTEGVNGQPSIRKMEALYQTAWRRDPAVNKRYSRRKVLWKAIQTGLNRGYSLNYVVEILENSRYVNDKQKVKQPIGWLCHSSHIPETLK
# Test: PBM E-score (8-mer binding enrichment) (E-score (-0.5 to 0.5)); higher = stronger / more preferred TF binding; most listed sequences are background and not binding sites
# Details: protein concentration: 200 nM; construct: GST-full length
# Method in brief: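 Detection of bound protein used fluorescent anti-GST, with scans normalised by masliner. The proteins were GST-tagged yeast transcription factors applied at about 100-200 nM to universal all-10-mer Agilent arrays made double-stranded by primer extension. Each ungapped eight-base word, pooled with its reverse complement, was scored with an E-score from the Universal PBM Analysis Suite.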
row,Sequence,PBM E-score
1,ACGCAACG,0.0849
2,GGAAATAC,-0.0295
3,AGCGTTAC,-0.226
4,ATGGAGAA,-0.0525
5,AGAACGGA,0.0997
6,AGTCCGAC,0.199
7,CTGCAATC,-0.0887
8,ATCCGTAG,-0.152
9,TAAGATGA,0.0618
10,GACAATAC,0.377
11,CCTCGACA,0.0222
12,CTGTCAGA,0.0132
13,CTACAGTA,-0.04
14,CGACGACC,-0.131
15,AAGGTTAA,-0.0953
16,CGCCTTCC,-0.254
17,ACGTAGCA,-0.0445
18,GCCCGGCC,-0.22
19,ATTCCAAC,-0.0416
20,GCCAACCA,-0.196
21,CGTGCGTA,0.0618
22,AGATTAGG,-0.137
23,AGCCGGAA,0.184
24,AAACATTC,0.0737
25,GGCGGATA,-0.117

row,Sequence,PBM E-score
1,CGAGCACA,0.0614
2,GAATGTAA,-0.0699
3,CGCGCTAA,0.0134
4,AGCCTTTG,-0.104
5,AACGGAAT,0.101
6,ACAGCCGA,-0.16
7,CTAAGATC,0.203
8,GGTAGGTA,-0.152
9,GCGTCCGA,0.123
10,CCCAATAG,-0.0782
11,AGCGTTTC,-0.0563
12,GATAGACA,0.331
13,CCAGTCGG,-0.209
14,ATCCTGTG,0.00037
15,ATTAGTAC,0.228
16,AAGTATGG,0.127
17,ATGGGCGG,-0.0431
18,AATAATTA,0.17
19,CATTAGCA,-0.0502
20,AGGTGACT,0.0672
21,CTTTCCGC,0.0223
22,TGACCTAA,0.231
23,GCAGATCC,0.0309
24,CCACATTC,-0.174
25,AGGGGGCC,-0.412

row,Sequence,PBM E-score
1,AAGAAAGA,0.122
2,ACGGTCGG,-0.0232
3,TGATCGCA,-0.0525
4,CTAGAAAC,0.0317
5,GGTGCCGA,-0.0156
6,CCATGTAG,-0.0462
7,ATCTGACA,0.155
8,AGCTCTCG,-0.0908
9,AATGCCCT,-0.0946
10,ACAGAAAC,0.0448
11,CGTATCTA,0.118
12,CAGGTAAC,-0.0911
13,CCCTCAAC,-0.272
14,CGATATCG,0.0659
15,AGATGAGG,-0.231
16,AGGAGTGC,-0.102
17,GAAACCTC,-0.154
18,AGTGACAA,0.302
19,CCTCTCCG,-0.194
20,TCACGACA,0.322
21,ACGACTCG,-0.0266
22,AGTAGGCA,-0.07
23,AGTAACCC,-0.0691
24,TTACGAAA,0.0138
25,AACTATTG,0.0905

row,Sequence,PBM E-score
1,AAGCCATT,-0.0471
2,CCCAAAGC,-0.0964
3,GATACTAC,0.0794
4,ATAGCTTC,-0.134
5,GAATATAA,0.08
6,CTCGGGTC,-0.119
7,AGGAGGCC,-0.311
8,CGGTAATA,0.101
9,GAGGATAC,-0.0207
10,CCAGTTCA,-0.105
11,AATCATTA,0.107
12,CCTCAGTA,-0.0965
13,ATAGTTGC,0.156
14,CAGGTGGC,-0.319
15,TACAGAAA,0.189
16,CGTAGTCA,-0.19
17,CGACCTCC,0.0198
18,ACTTGAAT,0.0631
19,ACCAGCCG,-0.0866
20,AGCTCAAA,0.0793
21,CGGTCAAA,0.142
22,GGAGGAAC,-0.188
23,ATAAGGCG,0.0335
24,AGGCTTGA,-0.0811
25,ATCTCAAG,0.0879

row,Sequence,PBM E-score
1,CGACGTGA,-0.047
2,CGGCACCC,-0.201
3,CCGGTCAA,0.127
4,CATCGCGA,0.0798
5,CAAGACTC,0.0404
6,CCTACTTC,-0.0262
7,AAAGGGGT,-0.238
8,AACAACGG,0.137
9,ATATACAC,0.0119
10,ATCAGCGC,0.0726
11,GCCTCCGA,0.00799
12,AGACACTG,0.0199
13,CCGCTCAA,0.018
14,CTGCATCA,-0.187
15,CCTGTGTC,0.176
16,AGGGGAAG,-0.241
17,CGTAGTAC,0.00492
18,AGTCAATG,-0.179
19,CTAAATAG,-0.0809
20,GATCGGGA,-0.121
21,GTAAGGCA,-0.123
22,AGGTCCCG,-0.173
23,GTCCATCA,0.257
24,CACGGCTG,-0.156
25,CCCCCGGC,-0.346

row,Sequence,PBM E-score
1,GATCCCGA,-0.0549
2,ATATGGAG,0.12
3,CTGGGAGA,-0.18
4,CAGCCCCC,-0.421
5,AGCTGGGG,-0.212
6,GTACCGAA,0.0667
7,ACCGTACC,-0.22
8,CGCACCAA,-0.00595
9,ACGAATTC,-0.0515
10,GGGATCGA,-0.224
11,CGTCCTCA,-0.0499
12,AAAAACAA,0.204
13,GGCTGAGA,-0.00423
14,ATGCAGAG,-0.253
15,ATGGCGAA,0.0465
16,GACAACTC,0.298
17,CCATGGTC,-0.0376
18,ACCCCCTC,-0.291
19,CGTCACTA,0.0773
20,AGCGGCAG,-0.149
21,CCAATCAG,-0.199
22,ATGTACTA,0.233
23,ACCTTTAG,-0.0877
24,CCGTGTTA,-0.183
25,ACTAAGGC,-0.12

row,Sequence,PBM E-score
1,AAAGGTCT,0.0624
2,AGAGTGTA,-0.201
3,ATAGAACA,-0.0421
4,CCTGTTAA,-0.00221
5,ATTTCCCG,0.188
6,ACGCGGAT,-0.051
7,ATCACGCA,0.064
8,AAAGCGCT,0.174
9,TAGAGGAA,-0.127
10,GTAGCGGA,0.0758
11,ATTGGCAA,0.0916
12,CGTCGGGA,0.088
13,CTGGTCGC,-0.0171
14,GACGCTGA,-0.0435
15,ACGGCCAT,-0.086
16,GCCCCCGC,-0.444
17,CGAGCAAC,0.0153
18,TCCATGAA,0.26
19,GGTTACCA,0.0654
20,AACTGTGT,0.0511
21,GCTTGACA,0.0579
22,AGCAAGCA,-0.124
23,CACCGCTA,0.00385
24,ATTGTTAA,0.0881
25,CTGTTAAG,-0.018

row,Sequence,PBM E-score
1,GTCGATTA,0.0601
2,TCACGTAA,-0.242
3,CGGCCAAA,0.0245
4,ATAACGCC,0.0308
5,ACTGTTCG,0.145
6,TAAACGTA,0.0172
7,AACTCTTC,-0.128
8,ATCGCGTA,-0.176
9,ACGTGTGA,0.0644
10,AACCGGTG,-0.0222
11,GAGAAACC,-0.0447
12,ACCTATGG,0.068
13,CTATCCCA,-0.0147
14,AGACGAGG,-0.131
15,AGTAATTA,0.119
16,CCTCCTTA,-0.265
17,TATTCACA,0.22
18,GCTGGGCC,-0.248
19,CGGGAATC,-0.0131
20,CACTCGCG,0.0699
21,CTCGTACA,0.145
22,TAGTTTGA,0.113
23,CTGGTTAA,0.102
24,CCTCTTAG,0.189
25,ATGTGGAA,0.216

row,Sequence,PBM E-score
1,GGAATAAC,-0.0369
2,GGCATCGA,-0.157
3,CGGCCCAC,-0.132
4,CCCTCCGC,-0.248
5,AATACACA,0.162
6,CAACTGAG,0.0855
7,CGGTCAAC,0.179
8,GACAACCA,0.287
9,ACTTCAGA,-0.0132
10,TAGCGCCA,-0.154
11,AGACGCCG,-0.136
12,GAAGCCGA,-0.119
13,TAGGGATA,-0.0828
14,CTTTGCAA,0.0671
15,CCTCTCAG,-0.339
16,GACTCCGC,0.0635
17,GGCGCTAA,-0.121
18,AGACGTTG,-0.194
19,ACCGGAAC,0.096
